Measured values from the supplement of paper PMC10338343.
± gives the standard deviation. The list shows a part of the results, in another mix than the full data.

Test system: MIWI (PIWIL1) piRISC loaded with L1MC piRNA (30 nt)
Assay: pre-steady-state target cleavage rate (min^-1); MIWI and MILI are mouse PIWI proteins and EfPiwi is from a freshwater sponge; tags in brackets are library labels; higher = faster piRNA-guided slicing of the target
Details: guide: L1MC piRNA 5'p-UAACUAAAUACUAUGCAAGCUGUAGGUCCU; auxiliary factor: 500 nM mouse GTSF1
Method in brief: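 Using HEPES–potassium acetate buffer at 33 °C, 1 nM active affinity-purified piRISC with a single synthetic guide was mixed with 0.1 nM transcribed, DNA-blocked target RNA library for 0–8 or 0–960 min, with or without 500 nM GTSF1 partner protein. Uncleaved targets were sequenced and normalised to depth and to weakly complementary targets, and three trials were pooled with k3 capped at 0.0001 min^-1. A burst-and-steady-state fit gave the pre-steady-state cleavage rate.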

Row | Sequence | pre-steady-state target cleavage rate
1 | UCCUGGAUGUCCUAGCAUAGUAAUUAGUUA | 0.00528 ± 0.0045
2 | UCCUGGUACAGCUUGCAUAGUUAAUAGUAA | 0.0718 ± 0.024
3 | AGGACCUACAGCUUGCAUAGUAUAUACAAA | 0.408 ± 0.073
4 | UCCUGGUACAGCUUGCAUAGUAAAAAGAAA | 0.0607 ± 0.021
5 | UCCUGGAUGUCGAACGUUGGUAUUUAGUUA | < 0.0001
6 | UCCUGGAUGUCGAACCAUUAGUAUUUAGUUA | < 0.0001
7 | UCCUGGUACAGCUUGCAAUGUAUUUUCAAA | 0.00729 ± 0.0039
8 | UCCUGGAUGUCCUUGCAUAGUAAUUUGUUA | 0.011 ± 0.005
9 | UCCUGCUACAGCUUGCAUAGGUAUUUAGUUA | 0.00816 ± 0.005
10 | UCCUGGAUGUCGAUGCAUAGUAUUUAGUUUA | 0.0105 ± 0.005
11 | UCCUCCUACAGCUUGCAUAGUAUUAUGUAA | 0.142 ± 0.038
12 | UCCUGGUACAGCUUGGUUAGUAUUUUCAAA | 0.00719 ± 0.0059
13 | UCCUGCUACAGCUUCGUUAGUAUUUAGUUA | 0.0986 ± 0.014
14 | UCCACCUACACGUUGCAUAGUAUUUAGAAA | 0.306 ± 0.032
15 | UGGACCUACAGCUUGCAUUCAAUUUAGUUA | 0.0044 ± 0.0032
16 | UCGACCUACAGCUUGCUAAGUAUUUAGUAA | 0.108 ± 0.016
17 | UCCUCCUACAGCUUGCAUAGUAUAUAGAAA | 0.283 ± 0.057

Row | Sequence | pre-steady-state target cleavage rate
18 | UCCACCUUGUGCUUGCAUAGUAUUUUCAAA | 0.0664 ± 0.015
19 | UCCUGGAACAGCUUGCUAGUAUUUAGUUA | 0.0142 ± 0.0056
20 | UCGACCUACAGCUUGCAUAGUAUUAUGAAA | 0.407 ± 0.059
21 | UCCUGCUACAGCUUGCUAAGUAUUUAGAAA | 0.0567 ± 0.015
22 | UGGACCUACAGCUUGCAUAGAUAUUAGUAA | 0.00525 ± 0.004
23 | UCCUGCUAGUGCUUGCAUAGUAUUUAGUAA | 0.0259 ± 0.0089
24 | UCCUGGAUGAGCUUGCAUAGUAUUAUGUAA | 0.00793 ± 0.0045
25 | UCCUGGAUGUCGUAGCAUAGUAUUUUGUUA | 0.00924 ± 0.005
26 | UCCUGCUACACCUUCCAUAGUAUUUAGUUA | 0.0288 ± 0.014
27 | UCCUCCUACAGCUUGCAUAGUAUUUACAAA | 0.361 ± 0.044
28 | UCCUGGAUCAGCUUGCAUAGAUUUUAGUAA | 0.0156 ± 0.0066
29 | UCCUGGAACAGCUUGCAUAGUAUUAUCAAA [g7:g23:cont:t1A] | 0.138 ± 0.033
30 | UCCUGGAUGUGGAAGCAUAGUAUUUAGUUA | 0.00647 ± 0.0028
31 | UCCUGCUACAGCUUGCUAAGUAUUUAGUAA | 0.107 ± 0.022
32 | UCCUGGAACAGCUUGCAUAGUAUAAUGUAA | 0.0909 ± 0.025
33 | UCCUCCUACACGUUGCAUAGUAUUUAGAAA | 0.394 ± 0.049
